One molecule from PMC4414571, “Peptides of Presenilin-1 Bind the Amyloid Precursor Protein Ectodomain and Offer a Novel and Specific Therapeutic Approach to Reduce ß-Amyloid in Alzheimer’s Disease” (PLoS ONE, 2015) can be followed below.

What all share (experiment): BLI; Octet RED96; biotinylated peptides loaded on streptavidin biosensors, quenched with biocytin; purified APPs (0-200 nM) or control IgG in solution; Kinetics Buffer (1X PBS, 0.002% Tween-20, 0.01% BSA), 30°C; global fit to a 1:1 model; KD = koff/kon
Settings in all cases: both partners purified
A general note: Biolayer interferometry detects binding as a change in optical thickness at a sensor tip.

For assay [1], the target named is T1, biotinylated peptide P1 (residues 1-80 of PS-1) (human, biotin at the NH2-terminus).
T1 construct: Presenilin-1 (PS-1), human, residues 1-80 (NH2-terminal domain); also called PS-1 NH2-terminal domain; source: synthetic peptide (Biopeptides, San Diego), >95% by HPLC

The target of assay [2] is T2, biotinylated peptide P4 (residues 41-55 of PS-1) (human).
T2 construct: Presenilin-1 (PS-1), human, residues 41-55; also called biotinylated P4; source: synthetic peptide (Biopeptides, San Diego), >95% by HPLC
T2 peptide: Biotin-RRSLGHPEPLSNGRP

In assay [3] the target is T3, biotinylated peptide P7 (residues 66-80 of PS-1) (human).
T3 construct: Presenilin-1 (PS-1), human, residues 66-80; source: synthetic peptide (Biopeptides, San Diego), >95% by HPLC
T3 peptide: Biotin-DEEEDEELTLKYGAK

The target in assay [4] is T4, biotinylated peptide P8 (residues 66-73 of PS-1) (human).
T4 construct: Presenilin-1 (PS-1), human, residues 66-73; also called biotinylated-P8; source: synthetic peptide (Biopeptides, San Diego), >95% by HPLC
T4 peptide: Biotin-DEEEDEEL

Ends that are not written are not given here. * marks the point of attachment. Biotin = O=C1N[C@H]2[C@H](CS[C@H]2CCCCC(=O)*)N1

B1: soluble APP (APPs), purified ectodomain of human APP 695 (domain or fragment)
chain: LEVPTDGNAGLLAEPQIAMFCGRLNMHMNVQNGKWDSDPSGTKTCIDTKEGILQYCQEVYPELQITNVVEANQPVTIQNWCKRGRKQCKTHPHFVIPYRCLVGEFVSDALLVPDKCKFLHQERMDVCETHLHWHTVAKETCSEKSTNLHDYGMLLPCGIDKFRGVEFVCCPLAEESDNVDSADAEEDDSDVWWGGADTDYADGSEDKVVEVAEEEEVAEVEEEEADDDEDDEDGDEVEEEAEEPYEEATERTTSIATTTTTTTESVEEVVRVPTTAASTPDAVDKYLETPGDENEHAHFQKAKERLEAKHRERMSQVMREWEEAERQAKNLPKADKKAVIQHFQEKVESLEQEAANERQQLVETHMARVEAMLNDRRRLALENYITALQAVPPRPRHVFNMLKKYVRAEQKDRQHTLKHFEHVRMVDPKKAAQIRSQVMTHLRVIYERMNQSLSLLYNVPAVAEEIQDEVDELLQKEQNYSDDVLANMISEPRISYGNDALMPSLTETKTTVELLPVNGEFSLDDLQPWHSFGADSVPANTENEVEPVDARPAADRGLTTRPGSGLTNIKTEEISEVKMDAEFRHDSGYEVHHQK
On to B1, for which the Kd in assay [1] was 14.3 nM; in assay [2], 16.1 nM; in assay [3] it was 10.1 nM; in assay [4] it was 3.45 nM. Besides, the koff in assay [1] came to 0.00172 s⁻¹; in assay [2], 0.00134 s⁻¹; in assay [3], 0.00105 s⁻¹; in assay [4], 0.00306 s⁻¹. In addition, the kon came to 120000 M⁻¹ s⁻¹ in assay [1], 83600 M⁻¹ s⁻¹ in assay [2], 104000 M⁻¹ s⁻¹ in assay [3] and 886000 M⁻¹ s⁻¹ in assay [4].

By Kd is commonly meant the concentration at which binding is half-saturated. Lower therefore signals a tighter complex. As usually defined, the koff is the rate constant with which the complex falls apart. Low values mean a long-lived complex, high ones a short-lived complex. By kon is commonly meant a measure of how fast the partners come together. Low readings indicate slower complex formation, high ones faster complex formation.
